In publication PMC4336329 (PLoS ONE, 2015):
About 14,000 (4.5%) of roughly 310,000 compounds showed an effect of 50% or more. The effect is printed as a negative number. Some of the results follow.

Molecular target: human ether-à-go-go-related gene (hERG) potassium channel (human, UniProt Q12809)
Test: primary screen, population patch clamp on CHO cells stably expressing hERG
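Note: peak tail current of the secondary pulse compared with the same well before compound.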

human ether-à-go-go-related gene (hERG) potassium channel, sequence (Q12809 whole entry, looked up): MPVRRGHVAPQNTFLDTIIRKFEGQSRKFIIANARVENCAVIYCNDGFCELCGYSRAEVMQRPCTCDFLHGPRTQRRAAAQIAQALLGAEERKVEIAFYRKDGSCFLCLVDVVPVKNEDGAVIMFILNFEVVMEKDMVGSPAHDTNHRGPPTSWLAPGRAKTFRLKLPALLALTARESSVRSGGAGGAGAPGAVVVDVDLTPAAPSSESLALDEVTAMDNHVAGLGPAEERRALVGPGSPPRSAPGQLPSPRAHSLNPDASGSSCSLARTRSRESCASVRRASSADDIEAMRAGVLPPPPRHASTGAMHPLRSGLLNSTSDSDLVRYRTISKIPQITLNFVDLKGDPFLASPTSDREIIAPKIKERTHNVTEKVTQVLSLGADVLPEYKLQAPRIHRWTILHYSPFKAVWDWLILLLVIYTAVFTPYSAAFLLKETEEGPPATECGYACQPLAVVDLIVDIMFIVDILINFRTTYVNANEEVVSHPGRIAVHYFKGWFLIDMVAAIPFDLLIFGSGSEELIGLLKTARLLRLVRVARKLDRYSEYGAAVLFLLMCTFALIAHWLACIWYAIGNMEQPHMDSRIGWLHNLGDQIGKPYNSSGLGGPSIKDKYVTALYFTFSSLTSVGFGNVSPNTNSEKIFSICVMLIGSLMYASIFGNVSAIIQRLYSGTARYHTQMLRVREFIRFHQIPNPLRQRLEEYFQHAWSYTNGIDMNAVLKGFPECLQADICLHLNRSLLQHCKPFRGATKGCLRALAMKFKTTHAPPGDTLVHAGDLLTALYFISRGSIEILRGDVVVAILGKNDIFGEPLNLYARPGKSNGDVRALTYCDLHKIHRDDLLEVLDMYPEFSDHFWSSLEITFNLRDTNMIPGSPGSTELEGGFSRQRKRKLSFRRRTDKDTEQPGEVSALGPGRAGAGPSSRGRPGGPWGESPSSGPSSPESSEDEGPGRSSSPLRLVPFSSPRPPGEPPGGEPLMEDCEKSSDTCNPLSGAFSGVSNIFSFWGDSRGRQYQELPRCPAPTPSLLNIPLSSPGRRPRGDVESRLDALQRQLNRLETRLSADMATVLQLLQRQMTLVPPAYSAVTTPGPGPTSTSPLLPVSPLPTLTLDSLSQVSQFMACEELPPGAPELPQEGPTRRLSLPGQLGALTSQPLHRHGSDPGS

| SMILES | hERG current change (%, negative = inhibition) at 10uM [%] |
| --- | --- |
| Cc1nc(-c2cccc3ccccc23)ccc1C(=O)O | 4.26 |
| CC(C)(C)c1ccc(O)c(O)c1 | 17.5 |
| CC(=O)N1CCc2cc(S(=O)(=O)NCCC3=CCCCC3)ccc21 | 12 |
| O=C(C1CCCN(Cc2ccccc2F)C1)N1CCCC1.O=C(O)C(=O)O (centres unmarked) | 11.3 |
| S=C(NCc1ccco1)Nc1ccc(N2CCOCC2)cc1 | 0.718 |
| COc1ccc(-c2c[nH]c(=O)[nH]c2=O)cc1OC | 5.75 |
| CCOC(=O)c1cnc2ccc(C(=O)OC)cc2c1Nc1ccc2c(c1)OCCO2 | 16.1 |
| COc1ccc(C2=NO[C@@H]3[C@@H]4C[C@@H]([C@H]5C(=O)N(C)C(=O)[C@@H]45)[C@H]23)c(OC)c1 | 9.04 |
| Cn1nccc1C(=O)Nc1ccccc1C(=O)O | 7.27 |
| CC(=O)c1ccc(NC(=O)COC(=O)c2nc(Cl)ccc2Cl)cc1 | 12 |
| CCOc1ccccc1CN1CCNC(=O)C1CC(=O)N(C)CCc1cnn(C)c1 (centres unmarked) | 3.42 |
| CC(CN(C)Cc1nc(Cc2cccc(C(F)(F)F)c2)no1)CN1CCCC1 (centres unmarked) | -63.2 |
| C=CCOc1nc2c(c(=O)n(C)c(=O)n2C)n1Cc1c(Cl)cccc1Cl | 2.49 |
| CCCC(=O)n1nc(NCc2ccc(OC)cc2)nc1NCc1ccc(OC)cc1 | 4.04 |
| Cc1cc(C)nc(N2CCCC(C(=O)NCCc3ccccc3F)C2)n1 (centres unmarked) | 12.7 |
| CCOc1ccc(NC(=O)c2nsc(Cl)c2Cl)cc1 | -1.95 |
| CC1Sc2ccc(S(=O)(=O)N3CCC(C(=O)N4CCN(C)CC4)CC3)cc2NC1=O (centres unmarked) | 19.2 |
| C=CCN1C(=O)C(O)(CC(=O)c2ccc(OC)cc2OC)c2cc(Br)ccc21 (centres unmarked) | -3.68 |
| CCC1(C)CC(=O)N(c2ccc(C(=O)O)c(O)c2)C1=O (centres unmarked) | 6.39 |

| SMILES | hERG current change (%, negative = inhibition) at 10uM [%] |
| --- | --- |
| COc1cc(NC(=O)c2cc(OC)c(OC)c(OC)c2)ccc1NC(=O)c1cccs1 | 3.62 |
| O=C(CNC(=O)c1ccccc1)NCCO | 11.9 |
| CC(C)(C)OC(=O)COc1cc(O)c2c(=O)cc(-c3ccccc3)oc2c1 | 13.5 |
| COc1ccc(NC(=O)CSc2ccc(-c3cccnc3)nn2)cc1 | -2.73 |
| O=C(Nc1ccc(Oc2ccccc2)cc1)N[C@@H](Cc1ccccc1)C(=O)O | 25.9 |
| CCc1ccc(/C=C2\SC(=S)N(CCC(=O)Nc3cc(C)on3)C2=O)cc1 | 15.1 |
| Cc1cc([N+](=O)[O-])c(NCCCCCCO)c([N+](=O)[O-])c1 | -38.1 |
| O=C(NCCc1ccc(Cl)cc1)C1CC(=O)N(C2CCCCC2)C1 (centres unmarked) | -19.6 |
| O=C(/C=C/c1ccc(F)cc1)N1CCc2ccccc2C1 | -11.2 |
| O=C(NC1CCCC1)C(c1ccc(N2CCOCC2)cc1)N(Cc1ccco1)C(=O)c1ccco1 (centres unmarked) | -8.59 |
| CC(C)(C)Nc1c([N+](=O)[O-])c(=O)sc2ccccc12 | 5.21 |
| CSc1ccc(S(=O)(=O)Nc2ccc3c(c2)NC(=O)CC3)cc1 | -8.76 |
| C/C(=N\NC(=O)c1sccc1-n1cccc1)c1cccs1 | 4.49 |
| O=C(Nc1cccc(C(F)(F)F)c1)c1cncs1 | 20 |
| CCOc1ccccc1N(C(=O)c1snc(C(N)=O)c1N)C(CC)C(=O)NC1CCCC1 (centres unmarked) | 16.7 |
| O=C(NCCCN1CCN(CCCNC(=O)c2ccc3c(c2)OCO3)CC1)c1ccc2c(c1)OCO2 | -36.8 |
| O=C(Cc1ccccc1)NCC(=O)OCC(=O)c1ccc([N+](=O)[O-])cc1 | 8.93 |
| O=C(CSc1nnc(NC(=O)CN2CCOCC2)s1)Nc1ccccc1 | 8.56 |
| COc1ccccc1N(CC(=O)NCCSc1ccccn1)S(=O)(=O)c1ccccc1 | 2.58 |

| SMILES | hERG current change (%, negative = inhibition) at 10uM [%] |
| --- | --- |
| Cc1ccc(C(=O)NCC(C)NC(=O)c2ccc(C)c(C)c2)cc1C (centres unmarked) | 17.3 |
| CCOC(=O)N1CCN(C(=O)c2c(N)no[n+]2[O-])CC1 | 14 |
| COc1ccc(NC(=S)Nc2cc(S(=O)(=O)N3CCCCC3)ccc2OC)cc1 | -15.1 |
| CC(=O)Nc1ccc(-c2csc(Nc3ccccn3)n2)cc1 | 5.07 |
| CCN(c1cccc(C)c1)S(=O)(=O)c1cc2c3c(c1)CCN3C(=O)CC2 | -1.93 |
| CC(=O)C1(c2ccccc2)CCN(C(=O)C2CCC(=O)N(CCc3cccc(F)c3)C2)CC1 (centres unmarked) | -20.5 |
| Cc1ccc(S(=O)(=O)N2CCN(C(=O)COC(=O)c3ccc(Cl)nc3)CC2)c(C)c1 | 1.86 |
| Cc1cn(Cc2ccccc2)c(=O)[nH]c1=O | 1.69 |
| C=CCn1c(N(C)C)nc2c1c(=O)[nH]c(=O)n2C | 5.16 |
| CCn1c(NCc2ccco2)nc2c1c(=O)n(C)c(=O)n2C | -10.7 |
| CCN(CC)S(=O)(=O)c1ccc(O)c(NC(=O)c2cc(-c3cc(OC)c(OC)c(OC)c3)nc3ccccc23)c1 | -59.2 |
| O=C(CSc1ccc([N+](=O)[O-])cn1)Nc1ccc(N2CCOCC2)c(Cl)c1 | -33.2 |
| CCCCn1c(CNC(=O)CC)nc2ccccc21 | -0.154 |
| C/C=C(\C)CN1CCN(c2ccc(C)cc2)CC1 | -7.37 |
| CCOc1ccc(S(=O)(=O)N2CCC(C(=O)N3CCOCC3)CC2)cc1Cl | -6.05 |
| O=C(c1ccccc1)N1CCN(S(=O)(=O)N2CCCCC2)CC1 | -0.901 |
| Cc1ccc(CNC(=O)c2ccc(N3CCC4(CC3)CC(c3cccc(Br)c3)=NO4)c(NC(=O)c3c(Cl)cccc3Cl)c2)cc1 | 18.2 |
| CCC(C)c1ccc(S(=O)(=O)N2CCN(CC(O)CN3CCOCC3)CC2)cc1 (centres unmarked) | -24.1 |
